Assay results reported in the supplement of paper PMC4604168 (melanoma cell lines).
This is one part of the list. Most values come without repeats; read them as rough.

Columns and labels:
Assay in all cases: cell count relative to DMSO control; melanoma cells; higher = more viable cells
Conditions in all cases: library dose: low library concentration; 72 h
[1] = tested on: MZ2-MEL
[2] = tested on: MeWo
[3] = tested on: RPMI7951
[4] = tested on: RVH-421
[5] = tested on: SkMel28
[6] = tested on: SkMel2
[7] = tested on: SkMel30
[8] = tested on: SkMel5
[9] = tested on: UACC257
[10] = tested on: UACC62
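Also: cell number obtained by counting DAPI-stained nuclei in high-throughput microscope images with image analysis software, screen run in 1,536-well plates.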

| Compound | cell count [1] [%] | cell count [2] [%] | cell count [3] [%] | cell count [4] [%] | cell count [5] [%] | cell count [6] [%] | cell count [7] [%] | cell count [8] [%] | cell count [9] [%] | cell count [10] [%] |
| --- | --- | --- | --- | --- | --- | --- | --- | --- | --- | --- |
| OCc1c[nH]c2ccccc12 [Indole-3-carbinol] + OCCn1cc(-c2cnc3nnn(Cc4ccc5ncccc5c4)c3n2)cn1 [PF04217903] (first compound 0.8 µM, partner dose 1 µM) | 112 | 102 | 100 | 134 | 95.7 | 96.5 | 102 | 114 | 116 | 95.3 |
| C#Cc1cccc(Nc2ncnc3cc(OCCOC)c(OCCOC)cc23)c1 [erlotinib] + CO[C@@H]1[C@H](N(C)C(=O)c2ccccc2)C[C@H]2O[C@]1(C)n1c3ccccc3c3c4c(c5c6ccccc6n2c5c31)C(=O)NC4 [Midostaurin] (first compound 0.8 µM, partner dose 0.08 µM) | 96.9 | 75.4 | 86.6 | 79.8 | 96.7 | 83.6 | 88.4 | 96.7 | 79.8 | 104 |
| Clc1ccc(Nc2nnc(Cc3ccncc3)c3ccccc23)cc1 [vatalanib] + Cn1cc(/C=C2\C(=O)Nc3cccnc32)c2ccccc21 [GW441756] (first compound 2 µM, partner dose 0.4 µM) | 91.8 | 79.6 | 78.6 | 85.4 | 103 | 89.1 | 103 | 75.2 | 90.7 | 88.8 |
| Clc1ccc(Nc2nnc(Cc3ccncc3)c3ccccc23)cc1 [vatalanib] + O=C(Nc1cccc(Cl)c1)Nc1ncc(CCNc2ncnc3ccsc23)s1 [SNS314] (first compound 2 µM, partner dose 0.0008 µM) | 92.1 | 78.8 | 93.6 | 87.3 | 103 | 86.8 | 90.8 | 94.7 | 94.7 | 119 |
| OCc1c[nH]c2ccccc12 [Indole-3-carbinol] + c1cc(-c2cnn3cc(-c4ccc(OCCN5CCCCC5)cc4)cnc23)ccn1 [Dorsomorphin] (first compound 0.8 µM, partner dose 0.4 µM) | 97.4 | 104 | 94 | 97.1 | 95.6 | 115 | 80.1 | 95.4 | 86.1 | 92.8 |
| O=C(CCCCCCC(=O)Nc1ccccc1)NO [vorinostat] + Cn1cncc1[C@@](N)(c1ccc(Cl)cc1)c1ccc2c(c1)c(-c1cccc(Cl)c1)cc(=O)n2C [tipifarnib] (first compound 0.08 µM, partner dose 0.01 µM) | 99.1 | 94.4 | 90.3 | 90 | 82.5 | 79.8 | 108 | 85.8 | 76.5 | 77.4 |
| Clc1ccc(Nc2nnc(Cc3ccncc3)c3ccccc23)cc1 [vatalanib] + NC(=O)Nc1cc(-c2cccc(F)c2)sc1C(=O)N[C@H]1CCCNC1 [AZD7762] (first compound 2 µM, partner dose 0.02 µM) | 101 | 91.6 | 76 | 123 | 71.8 | 109 | 113 | 89.3 | 90.4 | 82.1 |
| Clc1ccc(Nc2nnc(Cc3ccncc3)c3ccccc23)cc1 [vatalanib] + COc1ccc(-c2ccc3c(N4CCOCC4)nc(N4C[C@@H](C)O[C@@H](C)C4)nc3n2)cc1CO [KU0063794] (first compound 2 µM, partner dose 0.02 µM) | 99.9 | 86.9 | 103 | 111 | 81.7 | 103 | 116 | 89.8 | 91.8 | 88.5 |
| OCc1c[nH]c2ccccc12 [Indole-3-carbinol] + CC1(C)NC(=O)N(c2ccc([N+](=O)[O-])c(C(F)(F)F)c2)C1=O [nilutamide] (first compound 0.8 µM, partner dose 1 µM) | 92.5 | 104 | 118 | 92 | 98.6 | 97.2 | 101 | 100 | 113 | 96.2 |
| Nc1cccc2c1CN(C1CCC(=O)NC1=O)C2=O (stereo not given) [lenalidomide] + CN(C)S(=O)(=O)c1ccc2c(c1)/C(=C/c1cc3c([nH]1)CCCC3)C(=O)N2 [SU6656] (first compound 1 µM, partner dose 0.4 µM) | 94.3 | 82.1 | 92.9 | 89.7 | 80.4 | 84.9 | 70.9 | 79 | 79.3 | 56.7 |
| OCc1c[nH]c2ccccc12 [Indole-3-carbinol] + COc1cc2c(Oc3ccc4[nH]c(C)cc4c3F)ncnc2cc1OCCCN1CCCC1 [cediranib] (first compound 0.8 µM, partner dose 0.4 µM) | 97.8 | 91.8 | 103 | 79.5 | 94 | 91.9 | 104 | 95.6 | 83.7 | 87.9 |
| Nc1cccc2c1CN(C1CCC(=O)NC1=O)C2=O (stereo not given) [lenalidomide] + CN(NC(=O)CC(=O)NN(C)C(=S)c1ccccc1)C(=S)c1ccccc1 [STA4783] (first compound 1 µM, partner dose 0.006 µM) | 105 | 81.6 | 115 | 88.5 | 80.1 | 93.1 | 117 | 95.4 | 77.6 | 74.1 |
| Nc1cccc2c1CN(C1CCC(=O)NC1=O)C2=O (stereo not given) [lenalidomide] + C=CCn1c(=O)c2cnc(Nc3ccc(N4CCN(C)CC4)cc3)nc2n1-c1cccc(C(C)(C)O)n1 [MK1775] (first compound 1 µM, partner dose 0.02 µM) | 102 | 91.6 | 106 | 112 | 86.8 | 94.2 | 103 | 102 | 94.6 | 96.7 |
| Clc1ccc(Nc2nnc(Cc3ccncc3)c3ccccc23)cc1 [vatalanib] + CCN(CC)CCCCNc1ncc2cc(-c3cc(OC)cc(OC)c3)c(NC(=O)NC(C)(C)C)nc2n1 [PD173074] (first compound 2 µM, partner dose 0.1 µM) | 93.4 | 103 | 89.9 | 90.1 | 96.7 | 104 | 122 | 98.3 | 89.4 | 100 |
| Clc1ccc(Nc2nnc(Cc3ccncc3)c3ccccc23)cc1 [vatalanib] + C[C@@H]1CCN(C(=O)CC#N)C[C@@H]1N(C)c1ncnc2[nH]ccc12 [CP690550] (first compound 2 µM, partner dose 1 µM) | 97.4 | 93.4 | 83.8 | 108 | 101 | 97.5 | 99.1 | 90 | 93.4 | 92.3 |
| O=C(CCCCCCC(=O)Nc1ccccc1)NO [vorinostat] + NC(=O)Nc1cc(-c2cccc(F)c2)sc1C(=O)N[C@H]1CCCNC1 [AZD7762] (first compound 0.08 µM, partner dose 0.02 µM) | 105 | 96.7 | 73.6 | 92.4 | 83 | 117 | 97.6 | 106 | 128 | 91.5 |
| O=C(CCCCCCC(=O)Nc1ccccc1)NO [vorinostat] + Cc1cc(N2CCOCC2)cc2[nH]c(-c3c(NC[C@@H](O)c4cccc(Cl)c4)cc[nH]c3=O)nc12 [BMS536924] (first compound 0.08 µM, partner dose 0.2 µM) | 94.5 | 83.1 | 87.8 | 128 | 76 | 93.8 | 82.9 | 73.1 | 80.3 | 84.2 |
| Nc1cccc2c1CN(C1CCC(=O)NC1=O)C2=O (stereo not given) [lenalidomide] + COc1cc(Nc2ncc(F)c(Nc3ccc4c(n3)NC(=O)C(C)(C)O4)n2)cc(OC)c1OC [Tamatinib] (first compound 1 µM, partner dose 0.4 µM) | 99.6 | 95.9 | 82.6 | 74.4 | 85.1 | 101 | 112 | 84.9 | 71.5 | 71.4 |
| Cn1c(Nc2ccc(C(F)(F)F)cc2)nc2cc(Oc3ccnc(-c4ncc(C(F)(F)F)[nH]4)c3)ccc21 + COc1cc(Nc2ncc(F)c(Nc3ccc4c(n3)NC(=O)C(C)(C)O4)n2)cc(OC)c1OC [Tamatinib] (first compound 0.08 µM, partner dose 0.4 µM) | 82.7 | 85 | 74.6 | 96.9 | 82.6 | 99.6 | 97.7 | 95.7 | 70.4 | 72.2 |
| Cn1c(Nc2ccc(C(F)(F)F)cc2)nc2cc(Oc3ccnc(-c4ncc(C(F)(F)F)[nH]4)c3)ccc21 + C=CCn1c(=O)c2cnc(Nc3ccc(N4CCN(C)CC4)cc3)nc2n1-c1cccc(C(C)(C)O)n1 [MK1775] (first compound 0.08 µM, partner dose 0.02 µM) | 75.3 | 58.1 | 53.9 | 75.2 | 44.9 | 67.8 | 62.9 | 54.8 | 31.2 | 49.7 |
| COCC[n+]1c2c(n(Cc3cnccn3)c1C)C(=O)c1ccccc1C2=O + NCC(=O)Nc1ccc(-n2nc(C(F)(F)F)cc2-c2ccc3c(ccc4ccccc43)c2)cc1 [OSU03012] (first compound 0.0004 µM, partner dose 1 µM) | 57 | 59.7 | 76.2 | 88.4 | 73 | 63.2 | 44.3 | 77 | 85.8 | 83.5 |
